# Results reported in US10322110B2, “Imidazole-based antimicrobial agents” (priority 2014, dated 2019).
# Experiments:
# [1] = system: Escherichia coli TolC mutant strain ΔtoIC (K12 b3035 TolC; JW5503); format: cell-based; details: MIC activity class
# [2] = system: Human hepatocytes (HepaRG cells); test: human cytotoxicity assay in vitro (CellTiter-Glo), hepatocytes; format: cell-based; details: cytotoxicity class
# [3] = system: Streptococcus pneumoniae (Chester, ATCC49619); test: broth microdilution MIC assay, Streptococcus pneumoniae; format: cell-based; details: MIC100 class score, 24 h
# [4] = system: Staphylococcus aureus MSSA (Newman); test: broth microdilution MIC assay, Staphylococcus aureus MSSA (Newman); format: cell-based; details: MIC100 class score, 24 h
# [5] = system: Mycobacterium smegmatis (mc(2)155, ATCC700084); test: broth microdilution MIC assay, Mycobacterium smegmatis; details: MIC activity class
# [6] = system: Human keratinocytes (HaCaT cells); test: human cytotoxicity assay in vitro (CellTiter-Glo), keratinocytes; format: cell-based; set-up: key: 4: compounds inhibiting cell viability 50% or more at concentrations of 5 μM or less; 3: compounds causing more than 50% inhibition of cell viability at 10 μM; compounds causing >50% inhibition of cell viability at 25 μM; 1: compounds causing less than 50% inhibition of cell viability at 50 μM; compounds not causing loss of cell viability at concentrations of 50 μM or higher; details: cytotoxicity class
smiles,measurement,setting,value
Cc1[nH]c(-c2ccc(-c3ccccc3F)s2)nc1-c1ccccc1 [Compound 15],Antibacterial activity EC Δ (Escherichia coli ΔtoIC),[1],1 (MIC100 of 20-50 μg/ml or an MIC50 of <10 μg/ml)
same,cytotoxicity cell line H (hepatocytes),[2],1 (compounds not causing a loss of viability at concentrations between 25 and 50 μM)
Cc1[nH]c(-c2ccc(-c3ccccc3C(F)(F)F)o2)nc1-c1ccccc1 [Compound 17],Antibacterial activity EC Δ (Escherichia coli ΔtoIC),[1],1 (MIC100 of 20-50 μg/ml or an MIC50 of <10 μg/ml)
Cc1[nH]c(-c2ccc(-c3ccccc3OC(F)(F)F)o2)nc1-c1ccccc1 [Compound 18],Antibacterial activity EC Δ (Escherichia coli ΔtoIC),[1],1 (MIC100 of 20-50 μg/ml or an MIC50 of <10 μg/ml)
Cc1[nH]c(-c2ccc(-c3ccc(Cl)c(C(F)(F)F)c3)o2)nc1-c1ccc(F)cc1 [Compound 42],Antibacterial activity Streptococcus pneumoniae,[3],4 (MIC of 1 μg/ml or less for preventing streptococcal growth 100% (MIC100))
same,Antibacterial activity Staphylococcus aureus (MSSA),[4],4 (MIC of ≥1 μg/ml to 3 μg/ml for preventing staphylococcal growth 100% (MIC100))
same,Antibacterial activity MS (Mycobacterium smegmatis),[5],1 (MIC100 of 20-50 μg/ml or an MIC50 of <10 μg/ml)
same,cytotoxicity cell line H (hepatocytes),[2],1 (compounds not causing a loss of viability at concentrations between 25 and 50 μM)
same,cytotoxicity cell line K (keratinocytes),[6],3
Cc1nc(-c2ccc(-c3ccc(Cl)c(OC(F)(F)F)c3)o2)[nH]c1-c1ccc(Cl)cc1 [Compound 44],Antibacterial activity Streptococcus pneumoniae,[3],4 (MIC of 1 μg/ml or less for preventing streptococcal growth 100% (MIC100))
same,Antibacterial activity Staphylococcus aureus (MSSA),[4],4 (MIC of ≥1 μg/ml to 3 μg/ml for preventing staphylococcal growth 100% (MIC100))
same,Antibacterial activity MS (Mycobacterium smegmatis),[5],1 (MIC100 of 20-50 μg/ml or an MIC50 of <10 μg/ml)
Cc1[nH]c(-c2ccc(-c3ccc(C(F)(F)F)cc3)s2)nc1-c1ccccc1 [Compound 46],Antibacterial activity MS (Mycobacterium smegmatis),[5],1 (MIC100 of 20-50 μg/ml or an MIC50 of <10 μg/ml)
same,cytotoxicity cell line H (hepatocytes),[2],1 (compounds not causing a loss of viability at concentrations between 25 and 50 μM)
same,cytotoxicity cell line K (keratinocytes),[6],1
Cc1[nH]c(-c2ccc(-c3cccc(F)c3C)o2)nc1-c1ccccc1 [Compound 60],Antibacterial activity EC Δ (Escherichia coli ΔtoIC),[1],1 (MIC100 of 20-50 μg/ml or an MIC50 of <10 μg/ml)
FC(F)(F)Oc1ccccc1-c1ccc(-c2nc(Cl)c(-c3ccccc3)[nH]2)o1 [Compound 64],Antibacterial activity Streptococcus pneumoniae,[3],4 (MIC of 1 μg/ml or less for preventing streptococcal growth 100% (MIC100))
same,Antibacterial activity MS (Mycobacterium smegmatis),[5],1 (MIC100 of 20-50 μg/ml or an MIC50 of <10 μg/ml)
same,cytotoxicity cell line K (keratinocytes),[6],3
Cc1ccccc1-c1cnc(-c2ccc(-c3ccccc3C(F)(F)F)o2)[nH]1 [Compound 69],Antibacterial activity Streptococcus pneumoniae,[3],4 (MIC of 1 μg/ml or less for preventing streptococcal growth 100% (MIC100))
same,Antibacterial activity EC Δ (Escherichia coli ΔtoIC),[1],1 (MIC100 of 20-50 μg/ml or an MIC50 of <10 μg/ml)
